Reference: PubChem BioAssay AID1468 (National Center for Advancing Translational Sciences (NCATS), 2008)
Among all 280,000 compounds or so, about 1,100 (0.39%) were called active. Inconclusive means that the source gave no clear call. Such entries were picked first, then a sample of the others. The call rests on the fitted dose curve; in most records, active means well fitted inhibition curve with a large enough effect; inconclusive means small, poorly fitted or top-dose-only effect, or effect the other way; inactive means flat fitted curve, though single readings scatter. Potencies of inconclusive entries are left out as doubtful fits.

Biological target: Microtubule-associated protein tau (Homo sapiens) (UniProt P10636)
UniProt P10636, sequence (P10636 whole entry, looked up): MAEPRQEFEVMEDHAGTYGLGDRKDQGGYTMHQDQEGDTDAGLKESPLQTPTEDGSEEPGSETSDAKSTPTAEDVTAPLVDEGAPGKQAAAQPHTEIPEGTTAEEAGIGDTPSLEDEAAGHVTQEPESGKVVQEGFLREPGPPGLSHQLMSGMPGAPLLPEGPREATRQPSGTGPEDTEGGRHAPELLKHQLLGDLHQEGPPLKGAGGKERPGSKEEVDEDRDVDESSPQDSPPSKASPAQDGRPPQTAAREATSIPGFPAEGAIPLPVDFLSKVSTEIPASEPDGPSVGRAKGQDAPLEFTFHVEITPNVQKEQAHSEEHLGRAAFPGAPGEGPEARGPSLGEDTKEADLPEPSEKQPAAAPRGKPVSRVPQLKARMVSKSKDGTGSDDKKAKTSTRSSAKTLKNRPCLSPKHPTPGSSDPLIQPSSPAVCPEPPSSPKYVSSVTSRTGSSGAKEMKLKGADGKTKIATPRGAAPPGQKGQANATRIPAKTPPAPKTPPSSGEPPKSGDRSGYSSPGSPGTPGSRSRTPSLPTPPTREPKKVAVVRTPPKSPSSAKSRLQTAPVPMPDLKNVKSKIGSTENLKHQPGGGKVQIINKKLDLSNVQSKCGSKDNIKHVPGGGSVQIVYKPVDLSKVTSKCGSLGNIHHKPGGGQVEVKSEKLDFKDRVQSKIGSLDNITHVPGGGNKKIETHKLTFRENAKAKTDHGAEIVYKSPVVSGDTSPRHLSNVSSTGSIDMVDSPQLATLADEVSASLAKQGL
Assay: qHTS for Inhibitors of Tau Fibril Formation, Fluorescence Polarization; further: nearly all actives have a fitted effect of over 55% in size
Conditions: K18 P301L tau heparin fibrillization, Alexa594 FP, 6 h; series mostly up to 57.7 µM
Summary of the method: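 Steps: dispense K18 P301L tau (15 uM plus 0.24 uM Alexa 594 tracer, final) in pH 7 sodium acetate; add compound; add heparin (20 uM final); incubate 6 hr, 37 C; add ThT (30 uM final); after 1 hr ambient, read FP.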
On the % scale 0 is the no-effect control and ±100 the full control effect; potency means the concentration at half of the fitted maximal effect; tags describe the fitted curve by direction and shape.

For `COc1cccc(OC(=O)CSc2nnc(-c3ccccc3OC)o2)c1`, which Potency is on record?
The Potency was “inactive”.

How did the Potency turn out when `O=C(NCCN1C(=O)S/C(=C\c2cccnc2)C1=O)c1cccc(OC(F)F)c1` was run?
Its Potency is inconclusive [inhibitor, single point].

`O=C1Nc2ccc(NS(=O)(=O)c3cccs3)c3cccc1c23` was tested. Which Potency did it give?
Its Potency is “inactive”.

How did the Potency turn out when `COc1ccc(C(=O)O)cc1Nc1nc2ccc(C)cc2n2cnnc12` was run?
Its Potency is inconclusive [inhibitor, partial curve, poor fit].

Which Potency does the source give for `NC(=O)CC[C@@H](N)C(=O)O` here?
Its Potency is “inactive”.

Which Potency does the source give for `Cc1ccc(N2C(=O)CS(=O)(=O)C23C(=O)N(Cc2cccc(F)c2)c2ccccc23)cc1Cl` (centres undefined) here?
The Potency was inconclusive [inhibitor, single point].

`CCc1ccc(-n2c(SCC(=O)Nc3cccc(S(=O)(=O)NC4=NCCCCC4)c3)nc3ccccc3c2=O)cc1` was tested. Which Potency did it give?
Its Potency is inconclusive [inhibitor, partial curve, poor fit].

Which Potency does the source give for `CC(=O)Nc1ccc(N2C(=O)CC(c3ccccc3)CC2=O)cc1` here?
Its Potency is “inactive”.

For `O=C(NCC(c1ccc2c(c1)OCO2)N1CCN(c2ccccc2)CC1)c1ccccc1F` (centres undefined), which Potency is on record?
Its Potency is “inactive”.

With `Cc1ccc(NC(=O)c2c(Nc3ccccc3C)sc(C(=O)c3ccccc3)c2N)cc1` as the compound, how does the Potency read?
The Potency was “inactive”.

For `O=C(O)CCCN1C(=O)/C(=C/C=C/c2ccco2)SC1=S`, which Potency is on record?
Its Potency is inconclusive [inhibitor, partial curve].

`CCc1ccc(-n2nc(C)c3c(C(=O)Nc4cccc(C(F)(F)F)c4)cc(C)nc32)cc1` was tested. Which Potency did it give?
Its Potency is inconclusive [inhibitor, single point].

`O=C(Cc1ccc([N+](=O)[O-])cc1)Nc1cccc(C(F)(F)F)c1` was tested. Which Potency did it give?
Its Potency is inconclusive [inhibitor, partial curve].

With `Cc1ccc(NC(=O)c2sc3ccccc3c2Cl)cc1` as the compound, how does the Potency read?
Its Potency is inconclusive [inhibitor, single point].

Which Potency does the source give for `C[C@@H]1O[C@@H](Oc2c(-c3cc(O)c(O)c(O)c3)oc3cc(O)cc(O)c3c2=O)[C@H](O)[C@H](O)[C@H]1O` here?
The Potency was inconclusive [inhibitor, full curve, poor fit].

With `Cc1ccc(CN2C(=O)c3ccccc3C2C(=O)NC2CCCCCC2)cc1` (centres undefined) as the compound, how does the Potency read?
The Potency was “inactive”.

How did the Potency turn out when `O=C(Nc1ccc(Cl)c(Cl)c1)N1N=CCC1c1ccccc1` (centres undefined) was run?
The Potency was inconclusive [inhibitor, partial curve, poor fit].

`CCN(CC)c1ccc(/C=N/NC(=S)NCc2ccccc2)c(O)c1` was tested. Which Potency did it give?
Its Potency is inconclusive [activator, full curve].

For `CCCCCCCc1cc2c(cn1)C(=O)C(C)(OC(C)=O)C(O)=C2Cl` (centres undefined), which Potency is on record?
Its Potency is inconclusive [inhibitor, partial curve].

With `CCN(c1ccccc1)S(=O)(=O)c1ccc(NC(=O)c2ccco2)cc1` as the compound, how does the Potency read?
The Potency was inconclusive [inhibitor, single point].

How did the Potency turn out when `COc1ccc(-c2csc(NC(=S)NC(=O)c3cccs3)n2)cc1OC` was run?
Its Potency is inconclusive [inhibitor, single point].

Which Potency does the source give for `Cc1cccc(C)c1Nc1c(-c2ccsc2)nc2ccccn12` here?
The Potency was inconclusive [activator, full curve, poor fit].

For `CCN1CCN(c2cc(C)c3cc(NC(=S)NCc4cccs4)ccc3n2)CC1`, which Potency is on record?
The Potency was inconclusive [activator, partial curve].

Which Potency does the source give for `CCc1ccc(-c2nn(CC(=O)NC3CCCC3)c3c2cnc2ccc(C)cc23)cc1` here?
Its Potency is inconclusive [inhibitor, full curve, poor fit].

Which Potency does the source give for `COc1ccccc1C(=O)Nc1ccc2c(c1)nc1n2CCN(Cc2ccccc2)C1` here?
Its Potency is “inactive”.

Which Potency does the source give for `Cc1cccc(NCC(=O)N/N=C\c2cccc(Oc3ccccc3)c2)c1` here?
The Potency was inconclusive [activator, single point].

`OCC1(CC2CCCCO2)CCN(Cc2ccccc2-c2ccco2)CC1` (centres undefined) was tested. Which Potency did it give?
The Potency was inconclusive [inhibitor, single point].

With `N#Cc1ccccc1Sc1ccccc1C(=O)Nc1ccc(Br)cc1` as the compound, how does the Potency read?
Its Potency is inconclusive [inhibitor, partial curve, poor fit].

How did the Potency turn out when `CC(=O)N1[C@H](Cc2ccccc2)C=C[C@]1(C)C(=O)NCc1ccc(C)o1` was run?
Its Potency is inconclusive [inhibitor, partial curve].

For `Cc1ccc(C(C)C)c(OCC(=O)Nc2c(C(=O)c3ccccc3)oc3ccccc23)c1`, which Potency is on record?
The Potency was inconclusive [inhibitor, partial curve].

`O=C(O)c1cccc(Cn2c(Cl)c(/C=N/Nc3ccccc3)sc2=O)c1` was tested. Which Potency did it give?
Its Potency is inconclusive [inhibitor, single point].

Which Potency does the source give for `COc1ccc(CCN2C(=O)C3C4CCC(C4=C(C)C)C3C2=O)cc1OC` (centres undefined) here?
Its Potency is “inactive”.

Which Potency does the source give for `FC(F)(F)c1ccccc1-n1ccnc1` here?
The Potency was inconclusive [inhibitor, partial curve, poor fit].

With `CCOC(=O)c1ccc(-n2c(N)c(C(=O)OC)c3nc4ccccc4nc32)cc1` as the compound, how does the Potency read?
Its Potency is “inactive”.

For `O=C(N/N=C\c1cccc(F)c1)c1ccc(Cn2cc(Br)c([N+](=O)[O-])n2)o1`, which Potency is on record?
The Potency was inconclusive [activator, single point].

For `Cc1ccc(NC(=O)Cn2c(=O)n(Cc3ccccc3)c(=O)c3c(C)c(C)sc32)c(C)c1`, which Potency is on record?
Its Potency is inconclusive [inhibitor, partial curve].

For `O=C(Nc1cn(-c2ccccc2)nc1-c1ccc(Cl)cc1)c1ccccc1`, which Potency is on record?
The Potency was inconclusive [inhibitor, partial curve].

How did the Potency turn out when `Cc1ccc(CNC(=O)CCC2CCCN(C(=O)CCC(F)(F)F)C2)o1` (centres undefined) was run?
The Potency was inconclusive [inhibitor, partial curve, poor fit].

How did the Potency turn out when `COc1ccc(OCc2nnc(NC(=O)Nc3ccc(F)cc3)s2)cc1` was run?
Its Potency is active: 10 µM.

`COc1ccc2[nH]cc(CCNc3nc(-c4ccoc4)nc4ccccc34)c2c1` was tested. Which Potency did it give?
The Potency was inconclusive [activator, partial curve, poor fit].

With `CCCOc1ccc(C(=O)Nc2cccc(-c3nc4ccccc4[nH]3)c2)cc1` as the compound, how does the Potency read?
Its Potency is active: 25.1 µM.

With `CC1=C(C(=O)c2ccccc2)C(c2ccc(OC(F)F)cc2)NC(=S)N1` (centres undefined) as the compound, how does the Potency read?
Its Potency is “inactive”.

How did the Potency turn out when `O=C(NCCCN1CCOCC1)c1sc2cc([N+](=O)[O-])ccc2c1Cl` was run?
Its Potency is inconclusive [inhibitor, partial curve].

Which Potency does the source give for `COc1ccccc1NC(=O)C1=C(C)Nc2nc(-c3ccco3)nn2C1c1cccc(C)c1` (centres undefined) here?
The Potency was “inactive”.

For `CCN1CCN(CCNC(=O)c2ccc(/C=C3/Sc4ccccc4N(Cc4cccc(C)c4)C3=O)cc2)CC1`, which Potency is on record?
Its Potency is inconclusive [inhibitor, single point].

Which Potency does the source give for `CCOCC(=O)Nc1ccc(F)c(F)c1` here?
Its Potency is “inactive”.

With `O=C(O)[C@@H]1CSC2(CCSC2)N1` (some centres undefined) as the compound, how does the Potency read?
The Potency was inconclusive [inhibitor, full curve, poor fit].

How did the Potency turn out when `CCc1nnc(NS(=O)(=O)c2ccc(N3C(=O)c4ccc(C(=O)O)cc4C3=O)cc2)s1` was run?
Its Potency is inconclusive [activator, single point].

Which Potency does the source give for `O=C(CC1C(=O)NCCN1Cc1ccc(-c2ccccc2)cc1)NCCOc1cccnc1` (centres undefined) here?
The Potency was “inactive”.

`Cc1c(C(=O)c2ccccc2)c2ccccn2c1CCc1ccccn1` was tested. Which Potency did it give?
The Potency was “inactive”.

How did the activity, negative = inhibition turn out when `S=C(Nc1ccc2nc(-c3ccccn3)c(-c3ccccn3)nc2c1)N1CCCCC1` was run?
Its activity, negative = inhibition is inactive: 7.14% [at 2.34 µM].

`COC(=O)c1c(C)[nH]c(C=O)c1-c1ccccc1` was tested. Which Potency did it give?
The Potency was “inactive”.

For `O=C(Nc1ccc2nc(-c3ccccc3)oc2c1)c1ccco1`, which Potency is on record?
The Potency was inconclusive [inhibitor, partial curve, poor fit].

`C/C(CCN1CCCc2nc(C)c(C)cc21)=N\OC[C@@H](C)[C@H](OCc1ccccc1)C(C)C` was tested. Which activity, negative = inhibition did it give?
Its activity, negative = inhibition is inactive: 4.3% [at 11.6 µM].

`CCN1CCN(Cc2nc3cc(NC(=O)c4cccc([N+](=O)[O-])c4)ccc3n2CC)CC1` was tested. Which Potency did it give?
Its Potency is “inactive”.

Which Potency does the source give for `Cc1ccc(C)c(NC(=O)CSc2nnc(NC(=O)Nc3ccccc3)s2)c1` here?
Its Potency is inconclusive [inhibitor, full curve].

How did the Potency turn out when `CC1(C)CC(NCCC(c2ccccc2)c2ccco2)CCO1` (centres undefined) was run?
Its Potency is inconclusive [inhibitor, single point].

For `COc1ccc(Nc2cc(C(=O)NCCCN3CCOCC3)c3ccccc3n2)cc1OC`, which Potency is on record?
Its Potency is inconclusive [activator, full curve].

Which Potency does the source give for `O=C(Cn1cccc(C(F)(F)F)c1=O)c1ccc(Cl)cc1` here?
Its Potency is inconclusive [inhibitor, single point].

Which Potency does the source give for `CCOC(=O)N1CCC(NC(=O)c2ccc3c(c2)N(Cc2ccc(F)cc2)C(=O)c2ccccc2S3=O)CC1` (centres undefined) here?
The Potency was “inactive”.

`CS(=O)(=O)Nc1ccc(Cc2ccc(NS(C)(=O)=O)cc2)cc1` was tested. Which Potency did it give?
Its Potency is “inactive”.

Which Potency does the source give for `O=C(COc1ccccc1)Nc1nnc2n1CCS2` here?
Its Potency is “inactive”.

Which Potency does the source give for `CC(C)c1ccc(NC(=O)c2cnn(-c3ccccc3)c2NC(=O)c2ccco2)cc1` here?
Its Potency is inconclusive [inhibitor, single point].

`CSc1ccccc1NC(=O)Nc1cccc(Cl)c1` was tested. Which Potency did it give?
The Potency was inconclusive [inhibitor, partial curve, poor fit].

How did the Potency turn out when `CCOC(=O)c1sc(=NC(=O)c2ccc(OC(C)C)cc2)n(C)c1C` was run?
Its Potency is “inactive”.

With `CCCCN(CC)C(=O)CSc1cc(=O)n(C)c2ccccc12` as the compound, how does the Potency read?
The Potency was “inactive”.

How did the Potency turn out when `CCCCOCCCNc1ncnc2c1[nH]c1ccccc12` was run?
Its Potency is inconclusive [activator, partial curve].

Which Potency does the source give for `O=C(c1cccc(S(=O)(=O)N2CCOCC2)c1)N1CCN(Cc2ccc3c(c2)OCO3)CC1` here?
The Potency was “inactive”.

With `CS(=O)(=O)c1ncc(Cl)c(C(=O)N(Cc2ccc(Cl)cc2)Cc2ccco2)n1` as the compound, how does the Potency read?
Its Potency is inconclusive [inhibitor, single point].
